Test results published in patent US10299477B2 (priority 2015, dated 2019).

What was measured:
Type in all cases: in vivo
Botrytis cinerea = assay: Test Example B: Gray mold on tomato; settings: 250 ppm spray, preventive; control value class
Description: [Test Example B] Gray Mold on Tomato
Seeds of a test plant (tomato variety: Oogata Fukuju) were planted followed by cultivating until three to five first leaves (true leaves) appeared.

Plasmopara viticola = assay: Test Example G: Downy mildew on vine; settings: 250 ppm spray (2.5 ml/pot), preventive; 7-10 days after inoculation; control value class
Description: [Test Example G] Downy Mildew on Vine
Seeds of a test plant (grape variety: Neomuscat) were planted followed by cultivating until three to four first leaves appeared. […] After the sprayed dilutions were dried, a zoosporangia suspension (1-2×10^4 zoosporangia/ml) of Plasmopara viticola was inoculated to the plants by spraying.

[1] = tested on: Blumeria graminis f sp. hordei; assay: Test Example D: Powdery mildew on barley; settings: 250 ppm spray, preventive; control value class
Description: [Test Example D] Powdery Mildew on Barley
After the sprayed dilutions were dried, conidia of Blumeria graminis f sp. hordei were inoculated to the plants by shaking off.

Puccinia recondita = assay: Test Example E: Brown rust on wheat; settings: 250 ppm spray, preventive; control value class
Description: [Test Example E] Brown Rust on Wheat

Alternaia brassicicola = assay: Test Example C: Alternaria sooty spot on cabbage; settings: 250 ppm spray, preventive; control value class
Description: [Test Example C] Alternaria Sooty Spot on Cabbage
Seeds of a test plant (cabbage variety: Shikidori) were planted followed by cultivating until the cotyledons extended.

Compound | Test B control value (gray mold on tomato) (Botrytis cinerea) | Test G control value (downy mildew on vine) (Plasmopara viticola) | Test D control value (powdery mildew on barley) [1] | Test E control value (brown rust on wheat) (Puccinia recondita) | Test C control value (Alternaria sooty spot on cabbage) (Alternaia brassicicola)
CCn1c(-c2c(F)cccc2F)c(-c2cc(OCC(C)C)ccc2Cl)ccc1=O [Compound 258] | L (L shows 50% or less of control values) | H (H shows more than 50% of control values) | H (H shows more than 50% of control values) | L (L shows 50% or less of control values) | H (H shows more than 50% of control values)
CC(C)COc1ccc(Cl)c(-c2ccc(=O)n(C)c2-c2c(F)cccc2F)c1 [Compound 259] | L (L shows 50% or less of control values) | L (L shows 50% or less of control values) | L (L shows 50% or less of control values) | L (L shows 50% or less of control values) | H (H shows more than 50% of control values)
CCn1c(-c2c(F)cccc2F)c(-c2cc(OC[Si](C)(C)C)ccc2Cl)ccc1=O [Compound 260] | L (L shows 50% or less of control values) | L (L shows 50% or less of control values) | H (H shows more than 50% of control values) | L (L shows 50% or less of control values) | H (H shows more than 50% of control values)
Cn1c(-c2c(F)cccc2F)c(-c2cc(OC[Si](C)(C)C)ccc2Cl)ccc1=O [Compound 261] | L (L shows 50% or less of control values) | L (L shows 50% or less of control values) | L (L shows 50% or less of control values) | L (L shows 50% or less of control values) | H (H shows more than 50% of control values)
CCn1c(-c2c(F)cccc2F)c(-c2cc(OCC(F)(F)F)ccc2Cl)ccc1=O [Compound 262] | H (H shows more than 50% of control values) | H (H shows more than 50% of control values) | H (H shows more than 50% of control values) | H (H shows more than 50% of control values) | H (H shows more than 50% of control values)
Cn1c(-c2c(F)cccc2F)c(-c2cc(OCC(F)(F)F)ccc2Cl)ccc1=O [Compound 263] | H (H shows more than 50% of control values) | H (H shows more than 50% of control values) | L (L shows 50% or less of control values) | H (H shows more than 50% of control values) | H (H shows more than 50% of control values)
CCn1c(-c2c(F)cccc2F)c(-c2ccccc2[S+](C)[O-])ccc1=O (centres unmarked) [Compound 264] | H (H shows more than 50% of control values) | L (L shows 50% or less of control values) | L (L shows 50% or less of control values) | L (L shows 50% or less of control values) | L (L shows 50% or less of control values)
CCn1c(-c2c(F)cccc2F)c(-c2ccc(Cl)cc2)ccc1=O [Compound 265] | H (H shows more than 50% of control values) | H (H shows more than 50% of control values) | H (H shows more than 50% of control values) | H (H shows more than 50% of control values) | H (H shows more than 50% of control values)
CCn1c(-c2c(F)cccc2F)c(-c2ccc(Cl)cc2)cc(Cl)c1=O [Compound 266] | L (L shows 50% or less of control values) | L (L shows 50% or less of control values) | L (L shows 50% or less of control values) | L (L shows 50% or less of control values) | H (H shows more than 50% of control values)
CCN1C(=O)CCC(c2ccc(C)cc2)=C1c1c(F)cccc1F [Compound 267] | L (L shows 50% or less of control values) | L (L shows 50% or less of control values) | H (H shows more than 50% of control values) | H (H shows more than 50% of control values) | H (H shows more than 50% of control values)
Cc1ccc(C2=C(c3c(F)cccc3F)N(C)C(=O)CC2)cc1 [Compound 268] | L (L shows 50% or less of control values) | H (H shows more than 50% of control values) | H (H shows more than 50% of control values) | H (H shows more than 50% of control values) | L (L shows 50% or less of control values)
CCn1c(-c2c(F)cccc2F)c(-c2ccc(C)cc2)ccc1=O [Compound 269] | H (H shows more than 50% of control values) | H (H shows more than 50% of control values) | H (H shows more than 50% of control values) | H (H shows more than 50% of control values) | H (H shows more than 50% of control values)
Cc1ccc(-c2ccc(=O)n(C)c2-c2c(F)cccc2F)cc1 [Compound 270] | H (H shows more than 50% of control values) | L (L shows 50% or less of control values) | H (H shows more than 50% of control values) | H (H shows more than 50% of control values) | H (H shows more than 50% of control values)
CCn1c(-c2c(F)cccc2F)c(-c2ccc(C)cc2)cc(Br)c1=O [Compound 271] | H (H shows more than 50% of control values) | H (H shows more than 50% of control values) | H (H shows more than 50% of control values) | H (H shows more than 50% of control values) | H (H shows more than 50% of control values)
CCn1c(-c2c(F)cccc2F)c(-c2ccc(C)cc2)cc(Cl)c1=O [Compound 272] | H (H shows more than 50% of control values) | H (H shows more than 50% of control values) | H (H shows more than 50% of control values) | H (H shows more than 50% of control values) | H (H shows more than 50% of control values)
Cc1ccc(-c2cc(Br)c(=O)n(C)c2-c2c(F)cccc2F)cc1 [Compound 273] | H (H shows more than 50% of control values) | H (H shows more than 50% of control values) | H (H shows more than 50% of control values) | H (H shows more than 50% of control values) | H (H shows more than 50% of control values)
Cc1ccc(-c2cc(Cl)c(=O)n(C)c2-c2c(F)cccc2F)cc1 [Compound 274] | H (H shows more than 50% of control values) | H (H shows more than 50% of control values) | H (H shows more than 50% of control values) | H (H shows more than 50% of control values) | H (H shows more than 50% of control values)
Cn1c(-c2c(F)cccc2F)c(-c2cc(OCCC[Si](C)(C)C)ccc2Cl)ccc1=O [Compound 276] | L (L shows 50% or less of control values) | L (L shows 50% or less of control values) | L (L shows 50% or less of control values) | L (L shows 50% or less of control values) | H (H shows more than 50% of control values)
CCn1c(-c2c(F)cccc2F)c(-c2cc(OCC(F)F)ccc2Cl)ccc1=O [Compound 277] | H (H shows more than 50% of control values) | H (H shows more than 50% of control values) | H (H shows more than 50% of control values) | H (H shows more than 50% of control values) | H (H shows more than 50% of control values)
